Assay results taken from PubChem BioAssay AID1963576 (National Center for Advancing Translational Sciences (NCATS), 2024).
In all, about 46,000 compounds went through this assay and about 60 (0.1%) were called active. About 3% were inconclusive and are not listed. Calls come from the whole dose curve; as a rule, active = well fitted inhibition curve with a large enough effect; inconclusive = small, poorly fitted or top-dose-only effect; inactive = no such curve, though single readings can be large or run the other way. The list shows a part of the results.

experiment: Primary qHTS assay for Inhibitors of ovarian cancer metastasis using an organotypic tumor microenvironment (TME) model.; note: nearly all actives have a fitted effect of over 65% in size;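 for activity change, negative = inhibition: plate controls were DMSO wells for no effect and tomatine positive control wells for full effect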; conditions: SKOV3ip1-GFP adhesion/invasion on 3D omental model, fluorescence; series mostly up to 45.8 µM; activity change, negative = inhibition: at the top concentration
Summary of the method: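 qHTS, 4-pt dose (0.36-46 umol/L); SKOV3ip1-GFP, 1,200 cells/well, no FBS; primary omental fibroblast/mesothelial co-culture 48 h pre-grown; 2 h RT + 16 h 37 C; PBS wash, 4% PFA; GFP count 488/509 nm.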

Activity change, negative = inhibition, inactive:
COc1cc(CNC(=O)c2ccc3nc(Cc4ccccc4)oc3c2)cc(OC)c1OC 2.26%
CC(CNC(=O)c1ccc(Cn2c(=O)c3cccn3c3cccnc32)cc1)c1ccccc1 (stereo not drawn) -4.27%
COc1ccc(-c2c(C)c3cc(OC(=O)N4CCOCC4)ccc3oc2=O)cc1OC 3.58%
Cc1cn2c(=O)cc(COC(=O)c3ccc(NC(=O)c4ccccc4C)cc3)nc2s1 3.22%
Cc1ccccc1CS(=O)(=O)Cc1ccc(C(=O)NCCc2ccc(Cl)cc2)o1 0.977%
Cc1ccccc1C(=O)Nc1sc2c(c1C(=O)N1CCC(C)CC1)CCC(C)C2 (stereo not drawn) 0.898%
COc1ccc(NC(=O)c2nnn(CC(=O)Nc3ccc(C)c(C)c3)c2N)cc1OC -13.9%
CCOc1cc2[nH]c(=O)n(CCCCC(=O)N3CCN(c4ccccc4OC)CC3)c(=O)c2cc1OCC 13.2%
CCc1cccc(NC(=O)Cn2c(=O)n3nc(-c4cccc(F)c4)nc3c3ccccc32)c1 2.11%
Cc1cn(C)c(CC(=O)Nc2cccc(C#N)c2)c1C(=O)O -9.59%
Cc1ccc(CSc2ncc(Cl)c(C(=O)Oc3ccccc3F)n2)cc1 16.6%
Cc1ccc(Cn2c(=O)n(-c3cccc(C(F)(F)F)c3)c(=O)c3c(C)c(C)sc32)c(C)c1 3.7%
Fc1cc(-c2cccc3ncc(-c4cnn(C5CCNCC5)c4)nc23)cc(F)c1CN1CCOCC1 -4.29%
Cc1ccc(Cn2c(=O)c3cccnc3n(Cc3ccc(C)cc3)c2=O)cc1 -0.432%
CCOC(=O)N1CCC(NC(=O)c2cnn(-c3ccc(OC)cc3)c2C2CCN(C(=O)OC(C)(C)C)CC2)CC1 21.8%
Cc1ccccc1NC(=O)COc1ccc2oc3c(c2c1)CCCC3 -2.27%
Cc1ccc(CCNC(=O)c2cnc3c(-c4ccc(F)cc4)c(C)nn3c2C)cc1 20.4%
Cc1ccc(-c2nn3c(=O)cc(CN4CCN(C(=O)Nc5cccc(C(F)(F)F)c5)CC4)nc3s2)cc1 5.26%
Cc1ccccc1OCCn1cc(C(=O)c2ccco2)c2ccccc21 3.49%
CCOc1ccc(C(=O)/C=C/c2cn(CC(O)CN3CCc4ccccc43)c3ccccc23)cc1 (stereo not drawn) -11.1%
COc1cc(OC)c(OC)cc1CN1CCc2nc(N3CCN(C)CC3)ncc2C1 15.9%
Cc1cc(C)cc(N2C(=O)N(Cc3cc(=O)n4ccccc4n3)c3ccccc3S2(=O)=O)c1 8.26%
O=C(CCn1c(=O)c2ccccc2n(Cc2cccc(F)c2)c1=O)NCc1ccc2c(c1)OCO2 -18.4%
CCOc1ccc(CN2CCN(Cc3ccc4c(c3)c3ccccc3n4CC)CC2)cc1 -0.45%
COc1ccc(N2CCN(c3nc4ccc(C(=O)c5ccccc5)cc4n4cnnc34)CC2)cc1 1.99%
COC(=O)c1cccnc1-n1c(=O)c2cccnc2n(CC(=O)Nc2cccc(C)c2)c1=O -9.02%
COc1cc(C2c3c(oc4ccc(F)cc4c3=O)C(=O)N2Cc2ccc3c(c2)OCO3)ccc1O (stereo not drawn) 14.1%
O=C1CC(c2c(F)cccc2Cl)c2c(ccc3ccccc23)N1 (stereo not drawn) -9.09%
COc1ccc(C(=O)Nc2ccc3nc4c(c(Nc5ccccc5OC)c3c2)CCCC4)c(OC)c1 -13%
Cc1ccc(NC(=O)c2oc3ccc(S(=O)(=O)N4CCOCC4)cc3c2C)c(C)c1 -4.57%
COc1ccc(CNC(=O)Cc2coc3ccc(C)cc23)cc1 -2.48%
CCOC(=O)c1c(C)n(C)c2ccc(O)cc12 9.25%
O=C(C=Cc1cccc(S(=O)(=O)Nc2ccccc2)c1)NO -4.68% [at 92.2 µM]
COc1ccc(NC(=O)Cc2c(C(=O)O)[nH]c3ccccc23)cc1OC 0.255%
CCN(c1ccccc1C)S(=O)(=O)c1nnc(NC(=O)c2ccccc2C)s1 0.305%
COc1cc(NC(=O)N2CCSc3ccccc32)cc(OC)c1OC -0.175%
CC(C)Oc1ccc(CNC(=O)c2ccc3c(c2)nc2n3CCOC2)cc1 -1.75%
Cc1nn(C(=O)c2c(F)cccc2F)c(C)c1S(=O)(=O)N1CCCCCC1 1.53%
CCOc1ccc(OCC)c(NC(=O)C2CCCN(S(=O)(=O)c3cc(Br)cc4c3N(C(=O)CC)CC4)C2)c1 (stereo not drawn) -7.77%
Cc1nc2nc(C)c(NS(=O)(=O)c3ccc(CC(C)C)cc3)c(=O)n2[nH]1 -5.87%
CCCc1nnc(NC(=O)Nc2ccccc2Cl)s1 2.46%
COc1ccc(NC(=O)Cn2cc(C(=O)c3ccccc3OC)c(=O)c3ccc(C)nc32)cc1OC -6.89%
Cn1c(=O)c2c(-c3ccccc3)n(CCCO)cc2n(C)c1=O -3.58%
CCn1c(CN2CCOCC2)nc2cc(NC(=O)c3cccc([N+](=O)[O-])c3)ccc21 -23.2%
COc1ccc(C)cc1NC(=O)c1nnn(-c2c(C)cccc2C)c1C -20.2%
N#Cc1ccc(Oc2ccc3c(c2)COB3O)cc1 -5.26%
CC(N)C12CC3CC(CC(C3)C1)C2 (stereo not drawn) -8.3%
CCOc1ccc(C2C(C(=O)Nc3ccccc3C)=C(C)Nc3nnnn32)cc1 (stereo not drawn) 1.91%
CCCCc1ccc2nc(NC(=O)OC)[nH]c2c1 5.37%
CC(C)N(C(=O)Cn1cc(SCC(=O)Nc2ccccc2C(F)(F)F)c2ccccc21)C(C)C -4.13%
COc1ccc(C)cc1NC(=O)c1oc2ccc(S(=O)(=O)N3CCC4(CC3)OCCO4)cc2c1C -6.34%
O=C(Cn1ccc2cc(S(=O)(=O)N3CCCCC3)ccc21)NCc1ccccc1Cl -4%
CCOCCn1cnc2sc(C(=O)Nc3ccccc3C(=O)OC)c(C)c2c1=O 3.29%
Cc1ccc(-c2nc(CCNC(=O)C(=O)Nc3c(C)cccc3C)cs2)cc1 -8.56%
CN(C)C1CCN(C(=O)c2ccc(NC(=O)Nc3nc(N4CCOCC4)nc(N4CCOCC4)n3)cc2)CC1 22.1%
COc1ccccc1/C=C/c1nc(C#N)c(NCC(C)C)o1 -10.3%
CC(C)Cn1c(=O)c2ccccc2n2c(CCC(=O)Nc3ccc(F)cc3)nnc12 -18.2%
CCCN(CCC)C(=O)c1nn(C)c2c1CSc1ccc(C)cc1-2 -2.82%
CCOc1ccc(NC(=O)Cn2nc(Cc3ccncc3)c3ccccc3c2=O)cc1 -0.288%
COc1ccc(C(=O)c2oc3ccccc3c2NC(=O)c2cccc(OC)c2)cc1 -8.65%
COc1ccc(-n2ccnc(NCc3ccccc3Cl)c2=O)cc1OC -1.52%
CCOC(=O)c1cc(-c2ccccc2)n(CCCC(=O)Nc2ccccc2C)c1C -9.87%
CCOc1ccccc1CNC(=O)c1cnc2sc(N(CC)CC)nn2c1=O 0.835%
COc1ccc(CNC(=O)C(CC(C)C)N2Cc3ccccc3C2=O)cc1 (stereo not drawn) -3.23%
CCN(CC)CCOC(=O)c1ccc(Nc2c3c(nc4ccccc24)CCC3)cc1 -2.69%
CCc1ccc(NC(=O)CN2C(=O)c3ccccc3Sc3ccc(C(=O)N4CCCC4)cc32)cc1 2.43%
Clc1cccc(C2=NC(c3cccs3)=Nc3ccc(Br)cc3N2)c1 -1.98%
COc1ccc(CNC(=O)c2sc3nc4n(c(=O)c3c2C)CCCCC4)cc1 4.83%
Cc1nc(-c2ccc(S(=O)(=O)Nc3ccc(Cl)c(C(F)(F)F)c3)cc2)co1 -8.48%
CCN(CC)CCOC(=O)c1ccc(NC(=O)c2cc3c(s2)-c2ccccc2OC3)cc1 -24.2%
O=C(c1cc2ccc3cccnc3c2[nH]1)N1CCN(c2ccccc2)CC1 16.3%
COc1ccc(Cn2c(C(=O)O)c(CNCc3ccc(C)o3)c3ccc(C)cc32)cc1 -1.44%
COc1ccc(C(=O)Nc2ccc(-c3nnc4n3CCCCC4)cc2)cc1OC 21.6%
COC(=O)c1cccc(-n2c(CCC(=O)O)ccc2-c2cccs2)c1 11.4%
COc1cc(-c2nc3nc(C)cc(C)n3c2Nc2ccc(Cl)cc2)ccc1O 1.97%
CCc1ccccc1N1CC(c2nc3ccccc3n2CCCCOc2ccccc2)CC1=O (stereo not drawn) 1.09%
O=C(N[C@@H](c1ccccc1)[C@@H]1CCCCN1)c1cccc(C(F)(F)F)c1Cl 3.57%
CCOC(=O)c1ccc2ncc3c(-c4ccccc4)nn(-c4ccc(F)c(Cl)c4)c3c2c1 46.1%

outcome, inactive:
COc1ccc2c(c1)c1c(c(=O)n(-c3ccc(OC)c(OC)c3)c(=O)n1Cc1ccc(F)cc1)n2C
CCOC(=O)C1CCCN(c2c(C(=O)c3ccccc3)cnc3ccc(F)cc23)C1 (stereo not drawn)
COc1cccc(Cn2nnc(C(=O)NCc3ccc(Cl)cc3Cl)c2N)c1
COc1ccc(-c2cc3nc(C)c(CCC(=O)NCCc4ccc(Cl)cc4)c(C)n3n2)c(OC)c1
O=C(CN1C(=O)COc2ccc(S(=O)(=O)N3CCCCCC3)cc21)N1CCN(c2ccc(F)cc2)CC1
COc1ccc(OC)c(C2CC(=O)c3c([nH]c(C(=O)OCc4ccc(C)cc4)c3C)C2)c1 (stereo not drawn)
Clc1ccc(-c2noc3ncnc(NC4CCCCC4)c23)cc1
CCc1nn(CC(=O)NCc2ccc(C)cc2)c(=O)c2cc3occc3n12
O=C(CCS(=O)(=O)c1nc(-c2ccc3c(c2)OCO3)cc(C(F)(F)F)n1)Nc1ccc(Br)cc1
Cc1ccc(CN2CCC(CNC(=O)Nc3ccc(C)c(C)c3)C2)cc1 (stereo not drawn)
CC(=O)Nc1nnc2n1CCS2
CCOC(=O)c1ccc(N2CCN(c3cc(C)ccc3C)CC2)c(NC(=O)Nc2ccc(Cl)cc2)c1
Cc1ccc(C)c(NC(=O)/C(C#N)=C/c2ccc(C(C)C)cc2)c1
COc1cc(NC(=O)CN2Cc3ccccc3C2=O)cc(OC)c1OC
Cn1c(=O)c2c(c3ccccc31)OC(=O)CC2c1cccc(Cl)c1 (stereo not drawn)
COc1ccc(N2C(=O)CSC23C(=O)N(Cc2ccc(C)cc2)c2ccccc23)cc1Cl (stereo not drawn)
CCOc1cccc(CC(=O)N2CCc3c([nH]c4ccccc34)C2c2ccc(SC)cc2)c1OCC (stereo not drawn)
CC(C)CN(CCNC(=O)c1cc(-c2cccs2)nc2ccccc12)CC(C)C
CC(Oc1ccccc1)C(=O)Nc1nnc2n1CCS2 (stereo not drawn)
CC(=O)N1CCc2nc3sc(C(=O)Nc4ccc(Cl)cc4F)c(N)c3c(C(F)(F)F)c2C1
